From the supplement of paper PMC3334620
The full ranking holds about 33,000 sequences; the median of “E-score (-0.5 to 0.5)” is about -0.036, and the highest 2% start at about 0.37. Some of the results follow.

Biological target: T1, Yer064c (UniProt P40041)
T1 sequence: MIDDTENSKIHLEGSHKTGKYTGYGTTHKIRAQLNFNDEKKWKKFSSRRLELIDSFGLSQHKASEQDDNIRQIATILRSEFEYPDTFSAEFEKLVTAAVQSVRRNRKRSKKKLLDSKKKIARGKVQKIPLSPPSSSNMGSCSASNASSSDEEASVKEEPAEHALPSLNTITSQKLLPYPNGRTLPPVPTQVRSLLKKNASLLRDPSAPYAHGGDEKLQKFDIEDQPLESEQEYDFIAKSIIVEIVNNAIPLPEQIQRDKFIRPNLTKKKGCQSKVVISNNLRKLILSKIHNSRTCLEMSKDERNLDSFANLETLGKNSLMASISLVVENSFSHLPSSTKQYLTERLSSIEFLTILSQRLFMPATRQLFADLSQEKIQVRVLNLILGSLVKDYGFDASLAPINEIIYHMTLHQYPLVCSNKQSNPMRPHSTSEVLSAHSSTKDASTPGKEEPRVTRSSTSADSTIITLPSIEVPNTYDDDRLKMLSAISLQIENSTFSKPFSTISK
Assay: PBM E-score (8-mer binding enrichment) (E-score (-0.5 to 0.5)); higher = stronger / more preferred TF binding; most listed sequences are background and not binding sites
Conditions: protein concentration: 200 nM; construct: GST-full length
Method: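 Universal 'all 10-mer' protein binding microarrays (Agilent AMADID 015681) probed with GST-tagged S. cerevisiae TFs (full-length or DBD) made by in vitro transcription/translation (PURExpress), about 100-200 nM. Bound TF was detected with fluorescent anti-GST. Each ungapped 8-mer (which stands for itself and its reverse complement) is scored by the PBM enrichment score (E-score), a modified Wilcoxon-Mann-Whitney statistic from -0.5 to +0.5, computed with the Universal PBM Analysis Suite. Scale: above 0.35 generally sequence-specific binding.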

| Sequence | PBM E-score |
| --- | --- |
| ACTTACAT | -0.0151 |
| ACCATAAC | 0.184 |
| AAAAGGAT | -0.0899 |
| GACGTCAC | -0.158 |
| CACGTAAA | -0.17 |
| CCTCTGTC | -0.293 |
| GACTCCAC | 0.37 |
| AGCTGCAC | -0.251 |
| ACCCTTAA | -0.0712 |
| ACTACCCT | -0.0176 |
| CTAAGAAA | 0.196 |
| TCGGGCCA | -0.109 |
| CCAACCAC | 0.0549 |
| AACTCACA | 0.259 |
| ACTCTTTG | 0.231 |
| CGGAGTGC | -0.141 |
| AGCGTTTG | -0.286 |
| GGGCGGGA | -0.114 |
| AGCAGCAA | 0.00509 |
| ACAGGGGT | -0.0538 |
| AGGATCGC | -0.171 |
| CGAGTACA | 0.138 |
| ACGACCGT | -0.14 |
| GCAGGCAC | -0.0617 |
| ACCAACAC | 0.0631 |

| Sequence | PBM E-score |
| --- | --- |
| CCGTCCAA | -0.192 |
| ATGAACTA | 0.0302 |
| AGGTGCTA | -0.153 |
| GATGGTGC | -0.357 |
| ATGTCTAG | 0.227 |
| CCTCGGTA | -0.16 |
| CCCAGCCA | -0.107 |
| ATACGTGA | 0.187 |
| ACCTATGC | -0.0957 |
| CGCGTTAG | -0.0343 |
| ACGTCTTC | -0.127 |
| ACGCAAAC | -0.0295 |
| ACCCCAGC | -0.127 |
| ATTACGAA | 0.156 |
| CCCGACAG | -0.146 |
| CCCATCAG | -0.2 |
| TATTTTAA | 0.139 |
| CGGCATAG | 0.0681 |
| CCCGTTAG | -0.24 |
| AGGCCGGC | -0.3 |
| ATATGAAT | 0.174 |
| TCTCAAGA | 0.0628 |
| AATAGAGC | 0.102 |
| GGCCCGGA | -0.364 |
| CCGCGCCC | -0.289 |

| Sequence | PBM E-score |
| --- | --- |
| AAGAGTAC | 0.154 |
| CGTATGGC | 0.0766 |
| GTCTTGGA | 0.0146 |
| CGAGGTCA | 0.117 |
| GCTCCCGA | -0.0307 |
| CAAAATCA | 0.186 |
| ATAGTACA | 0.115 |
| CGGTGTAG | -0.0216 |
| ACTTGCGC | -0.0578 |
| AGCTGCGC | -0.176 |
| TAAATCTA | 0.0622 |
| AGGGAAGG | -0.242 |
| CCATTCTC | -0.184 |
| ACCACTTC | -0.267 |
| AAGCATCA | -0.0953 |
| AACGCAAT | 0.155 |
| CTGGATTA | 0.0758 |
| TCGCTGCA | -0.0065 |
| TTACACAA | 0.18 |
| CTGTAGAC | 0.0599 |
| CGCGCGCG | 0.022 |
| ATACTCGA | -0.0191 |
| GAGCGCGA | 0.0878 |
| CACGGAAG | 0.0525 |
| GCTGCTCC | -0.23 |

| Sequence | PBM E-score |
| --- | --- |
| AACGTAGC | -0.116 |
| ATGACTTA | 0.475 |
| CGCTGTAC | -0.0492 |
| CGCCGTCA | -0.157 |
| ACCCTTCT | -0.153 |
| TCCGCTAA | 0.0224 |
| ACATGGGC | 0.0253 |
| TAGGCAGA | 0.0685 |
| GCTGGGCA | -0.136 |
| AGCGTGAA | -0.0798 |
| AGGTCCTC | -0.246 |
| ATCTGACC | 0.0418 |
| GAGTGATC | 0.0688 |
| ATTTACGA | 0.12 |
| AAGACCGC | -0.239 |
| TCCGGAGA | -0.0667 |
| ACCAACTA | 0.0682 |
| CCACCTAG | -0.00871 |
| CATCATCG | 0.125 |
| AGTCTTGA | 0.296 |
| ATACGCAA | 0.108 |
| ACTGGGGA | -0.278 |
| AACTGGAC | -0.122 |
| CGATTCAC | 0.266 |
| AAGAAGCG | -0.211 |

| Sequence | PBM E-score |
| --- | --- |
| AATTATCA | 0.108 |
| AGGACACG | -0.0572 |
| AATAAGCA | -0.0011 |
| AGGGTCGC | -0.194 |
| GAACGAGC | -0.188 |
| ACGCCAAG | -0.0486 |
| CCGGGCTC | -0.0838 |
| GCGGGAAC | -0.213 |
| CCCACCAC | -0.12 |
| GATGGTGA | -0.066 |
| GACTGCGA | 0.337 |
| AACCTCCA | -0.267 |
| CGCTGGAG | -0.0957 |
| CACGAACG | -0.08 |
| CTAACGTC | 0.0985 |
| GAGGACTA | 0.369 |
| GAGTGACA | 0.036 |
| ACCGCCTG | -0.209 |
| ATCTACCA | -0.0905 |
| ATGCCTAA | -0.129 |
| AGGTGCGA | 0.00693 |
| GCTGCTGA | 0.0536 |
| AGAAAGAA | 0.0786 |
| ATTTTTCC | -0.0879 |
| CTGGAAGA | 0.0967 |

| Sequence | PBM E-score |
| --- | --- |
| AACCCCAG | -0.047 |
| AACTGCGA | -0.0669 |
| AACCCCCG | -0.369 |
| TCATTCGA | 0.132 |
| TAGATAGA | -0.00479 |
| AAACCGGG | -0.0401 |
| ATTGCAAC | -0.0826 |
| CCAACGCC | -0.241 |
| CAAGCTGG | -0.146 |
| CTAGTTCA | 0.0478 |
| AGATCGGC | -0.24 |
| AGGGATAG | -0.255 |
| CTTTTTGC | -0.0384 |
| AGATGTAG | -0.0949 |
| TACTGATA | 0.0643 |
| AGTCACAC | 0.477 |
| GCGCGTAA | -0.14 |
| ATTTAGAC | 0.272 |
| AAAGAACC | -0.0415 |
| AAAGGCCT | -0.252 |
| GCAGCGTA | -0.0827 |
| AACTTTCA | -0.102 |
| GCTCTCCA | -0.226 |
| CTGACCGA | -0.108 |
| ACGGAGAC | 0.125 |

| Sequence | PBM E-score |
| --- | --- |
| GCTAGCGA | -0.142 |
| ACAAAGCG | -0.00891 |
| GATTAACA | 0.367 |
| ATGCTAGA | -0.0387 |
| ACCGAACC | -0.0893 |
| GGCGTATA | -0.1 |
| AAGTTATA | 0.00722 |
| ACAGCCGT | -0.185 |
| CGTAGGAA | -0.0602 |
| CCATTGGC | -0.0145 |
| AGTTTCGA | -0.0241 |
| ATTAGCAG | -0.0796 |
| TCGCGCCA | 0.0373 |
| ATTACTAC | 0.073 |
| TCATTAGA | 0.19 |
| AGACCTGG | -0.261 |
| ATGGATGG | -0.0396 |
| CGGCTCGA | 0.195 |
| ATTACCGG | 0.0416 |
| CATCCTGG | -0.0782 |
| TCTAGTAA | -0.0245 |
| ACTCGGGC | 0.12 |
